Data taken from the supplement of paper PMC3334620.
In all, about 33,000 sequences were measured (“E-score (-0.5 to 0.5)”: median about -0.032, highest 2% from about 0.36 on). The list shows a part of the results.

biological target: T1, Sko1 (UniProt Q02100); experiment: PBM E-score (8-mer binding enrichment) (E-score (-0.5 to 0.5)); higher = stronger / more preferred TF binding; most listed sequences are background and not binding sites; conditions: protein concentration: 200 nM; construct: GST-full length
T1 sequence: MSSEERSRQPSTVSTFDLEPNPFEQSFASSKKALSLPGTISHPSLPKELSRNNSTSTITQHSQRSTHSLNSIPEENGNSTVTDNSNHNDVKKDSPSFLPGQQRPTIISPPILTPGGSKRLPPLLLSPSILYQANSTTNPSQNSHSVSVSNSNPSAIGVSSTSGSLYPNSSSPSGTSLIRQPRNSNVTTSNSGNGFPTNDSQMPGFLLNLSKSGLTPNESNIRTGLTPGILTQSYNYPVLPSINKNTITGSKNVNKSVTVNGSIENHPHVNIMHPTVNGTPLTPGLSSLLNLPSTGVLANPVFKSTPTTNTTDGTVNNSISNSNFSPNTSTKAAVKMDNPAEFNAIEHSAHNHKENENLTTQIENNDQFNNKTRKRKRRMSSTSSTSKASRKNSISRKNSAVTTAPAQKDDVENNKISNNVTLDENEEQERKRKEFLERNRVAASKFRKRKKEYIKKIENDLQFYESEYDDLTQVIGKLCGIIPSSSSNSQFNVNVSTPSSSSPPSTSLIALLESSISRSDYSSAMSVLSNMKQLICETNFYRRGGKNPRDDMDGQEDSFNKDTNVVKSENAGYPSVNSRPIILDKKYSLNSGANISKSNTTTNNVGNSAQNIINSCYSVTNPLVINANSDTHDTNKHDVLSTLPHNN
Outline: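 Universal all-10-mer Agilent arrays, double-stranded by primer extension on fresh or once-stripped slides, were probed with about 100-200 nM GST-tagged yeast transcription factors made by PURExpress. Fluorescent anti-GST detected bound protein, and masliner normalised the scans. E-scores from the Universal PBM Analysis Suite were given to each ungapped eight-base word pooled with its reverse complement.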

| Sequence | PBM E-score |
| --- | --- |
| CCAATGTC | 0.059 |
| ACCGGACC | -0.144 |
| CATGGCTC | -0.0291 |
| GGTCAAAA | 0.096 |
| CCCAGGGC | -0.357 |
| CATGTGAA | -0.026 |
| CTCCAGAG | -0.282 |
| GTGACATA | 0.381 |
| AGGACTGG | -0.19 |
| CCTCCTAG | -0.195 |
| GGGTGTAA | -0.127 |
| ACCAAGGG | -0.127 |
| AATTCAAA | 0.193 |
| AGGGTGCC | -0.328 |
| GGTCGCGA | -0.0404 |
| ATAGTCAA | -0.0272 |
| ACGGACAT | -0.0219 |
| CACAAAGG | 0.0434 |
| AGCAGACA | -0.253 |
| CCCAGTCC | -0.295 |
| CCACAGCC | -0.309 |
| CCCACTGA | -0.268 |
| ATCACAAT | 0.143 |
| CACGGAAA | 0.0747 |

| Sequence | PBM E-score |
| --- | --- |
| TAGATGGA | -0.02 |
| GAGTCCGC | -0.271 |
| GTAGAATA | 0.172 |
| GGACGCAC | 0.018 |
| ACGTGACG | 0.462 |
| CTAGCAAC | 0.0659 |
| TCCACGCA | 0.185 |
| ACACGAAT | 0.233 |
| GTATCGGA | 0.0853 |
| CAGCTCGG | -0.202 |
| AACCTAAT | 0.104 |
| AAGCCAGA | -0.184 |
| AATATGAA | 0.193 |
| CTGCCTGA | 0.0683 |
| ACTACCGA | -0.221 |
| ATTCCGCG | 0.057 |
| GCGCCCGA | -0.065 |
| AGTTTTAG | 0.0986 |
| GTTACTTA | 0.158 |
| AAGACGCA | 0.135 |
| TAGCGACA | 0.11 |
| CACCAGAG | -0.304 |
| AAATAAGG | 0.112 |
| AGCTCCAC | -0.224 |

| Sequence | PBM E-score |
| --- | --- |
| ACACGATG | 0.115 |
| AGGAAGAC | -0.132 |
| ACGCCTCA | -0.0263 |
| ATCGGCGC | -0.076 |
| GCATTAAC | 0.13 |
| GGTATAAC | 0.113 |
| TCGGGGCA | -0.286 |
| TCATCGGA | 0.13 |
| CCAGAAGG | -0.164 |
| GTGCTTAA | 0.0867 |
| CGCTAACC | -0.187 |
| TAGGATAA | 0.0472 |
| ATCGTCAC | 0.385 |
| ACATTTTC | 0.127 |
| GACCTCCC | -0.323 |
| GGACATGA | -0.0394 |
| ATCCTAAA | -0.0168 |
| GCAAGTCA | 0.00337 |
| ACTGACAA | 0.16 |
| ACAACTAA | 0.161 |
| ACCTAATA | 0.254 |
| CAGGCTGC | -0.2 |
| GTATTAAA | 0.273 |
| CCTAACAA | 0.142 |

| Sequence | PBM E-score |
| --- | --- |
| CATCGCTC | -0.245 |
| TAACGGTA | 0.0311 |
| TACTTTGA | 0.116 |
| GGGTCCGA | -0.168 |
| CCTGATAA | 0.0531 |
| CCCCTAAA | -0.29 |
| GGATCGCA | -0.0421 |
| CCAGGAGA | -0.229 |
| CATGGAGA | 0.0682 |
| AATGCGGG | 0.00457 |
| CAGACATC | -0.0501 |
| ATGGAAGC | 0.0161 |
| ATTAGGAG | 0.137 |
| ACAGTGAT | 0.131 |
| CCGATAAC | 0.0795 |
| GTTTTGAA | 0.111 |
| GGCGGTAA | -0.137 |
| AAGGTTCC | -0.175 |
| CCAAGTGA | -0.0287 |
| ATCGCACC | -0.0981 |
| GGCGTACC | -0.0685 |
| CATAGATA | 0.218 |
